# Experimental data reported in the supplement of paper PMC4894684.
# Structures can show the parent of a compound that is named as a salt. ± gives the standard deviation of the averaged measurements. About 15 (2%) of roughly 1,000 compounds showed an effect of 50% or more. Some of the results follow.
# System: HFF
# Assay: uninfected host cell viability relative to vehicle control; higher = less host cell toxicity
# Conditions: 5 µM; 72 h; oxygen 21 %
# 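Also: confluent HFF monolayers, run in parallel with the Toxoplasma growth screen as a host toxicity counterscreen.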
row,SMILES,uninfected host cell viability [%]
1,CC(=O)Nc1ccc(O)cc1 [Acetaminophen],88.7 ± 5.5
2,O=C1N(c2ccccc2)c2ccccc2C1(Cc1ccncc1)Cc1ccncc1 [Linopirdine dihydrochloride],91.77 ± 0.66
3,CNCCC(Oc1ccccc1OC)c1ccccc1 (centres undefined) [Nisoxetine hydrochloride],101 ± 1.5
4,Cn1cnnc1Sc1c([N+](=O)[O-])ncn1C,89.361 ± 0.008
5,CCOC(=O)C1=C[C@]2(CC)CCCN3CCc4c(n1c1ccccc41)[C@@H]32 [Vinpocetine],86.9 ± 1.2
6,c1ccc(N2CCN(Cc3nc4ccccc4[nH]3)CC2)nc1 [ABT 724 trihydrochloride],91.1 ± 2.7
7,COC(=O)c1c(-c2cc(OC)c(OC)c(OC)c2)c2ccnc(OCc3ncccn3)c2c(=O)n1Cc1ccnc(C)c1 [T 0156 hydrochloride],97.36 ± 0.83
8,CN1[C@@H](CC(=O)c2ccccc2)CCC[C@H]1C[C@H](O)c1ccccc1 [Lobeline hydrochloride],84.1 ± 3.4
9,CN1CC2c3ccccc3Oc3ccc(Cl)cc3C2C1 (centres undefined) [Asenapine maleate],91.6 ± 5.8
10,CCOC(=O)c1ncc2[nH]c3cccc(OC(C)C)c3c2c1C,90.16 ± 0.27
11,CS(=O)(=O)CCNCc1nc(-c2ccc3ncnc(Nc4ccc(OCc5cccc(F)c5)c(Cl)c4)c3c2)cs1,82.9 ± 2.2
12,COc1ccc(Nc2ncnc3ccc(OC)cc23)cc1 [MPMQ hydrochloride],79.41 ± 0.13
13,C[C@@H](CN1CC(=O)NC(=O)C1)N1CC(=O)NC(=O)C1 [Dexrazoxane hydrochloride],84.2 ± 4
14,CNCCC(Oc1ccc(C(F)(F)F)cc1)c1ccccc1 (centres undefined) [Fluoxetine hydrochloride],80.7 ± 2.8
15,C#CCN1C(C)=C(C(=O)OC)C(c2cccc([N+](=O)[O-])c2)C(C(=O)OCC)=C1C (centres undefined),93.8 ± 1.5
16,OCc1cc(C(O)CNCCCCCCOCCCCc2ccccc2)ccc1O (centres undefined) [Salmeterol],103 ± 14
17,Cc1c(C(=O)NN2CCOCC2)nn(-c2ccc(Cl)cc2Cl)c1-c1ccc(I)cc1,90.8 ± 2.4
18,CC(C)Oc1ccc2c(=O)c3cc(C(=O)O)ccc3oc2c1,96.9 ± 2.2
19,CCC1=C(C)CN(C(=O)NCCc2ccc(S(=O)(=O)NC(=O)N[C@H]3CC[C@H](C)CC3)cc2)C1=O [Glimepiride],89.39 ± 0.47
20,Oc1ccc(-c2nc3cc(O)cc(Br)c3o2)cc1,88.8 ± 1.9
21,O=C1CCc2cc(OCCCCc3nnnn3C3CCCCC3)ccc2N1 [Cilostazol],98 ± 3.6
22,Cc1c[nH]c(=O)n(CCCN2CCN(c3ccccc3OCC(F)(F)F)CC2)c1=O,85.64 ± 0.49

row,SMILES,uninfected host cell viability [%]
1,CC(C)NCC(O)COc1cccc2ccccc12 (centres undefined) [Propranolol hydrochloride],85.9 ± 1.4
2,COC(=O)[C@@H]1[C@H]2C[C@H]3c4[nH]c5ccccc5c4CCN3C[C@@H]2CC[C@@H]1O [Yohimbine hydrochloride],89.1 ± 1.2
3,Oc1c2ccccc2c2c3c(cccc13)N=N2,69.9 ± 1
4,CC1(C)NC(=O)N(c2ccc([N+](=O)[O-])c(C(F)(F)F)c2)C1=O [Nilutamide],85 ± 4
5,N[C@@H](CC(=O)Nc1ccc(Oc2cc(F)c(F)cc2Br)cc1)C(=O)O,95 ± 0.96
6,CC1(C)Oc2ccc(C#N)cc2[C@H](N2CCCC2=O)[C@H]1O [Cromakalim],87.3 ± 4
7,COc1cccc(OC)c1OCCNCC1COc2ccccc2O1 (centres undefined) [WB 4101 hydrochloride],86.45 ± 0.5
8,N=C(N)NC(=O)c1nc(Cl)c(N)nc1N [Amiloride hydrochloride],99.21 ± 0.71
9,CC(Cc1ccccc1)(NC(=O)CN)c1ccccc1 (centres undefined) [Remacemide hydrochloride],85.5 ± 1.2
10,O=[N+]([O-])c1cccc2c(Br)[nH]nc12 [3-Bromo-7-nitroindazole],83.8 ± 3.7
11,"CCS(=O)(=O)N(C)[C@H]1c2cc(C#N)ccc2OC(C)(C)[C@@H]1O [(-)-[3R,4S]-Chromanol 293B]",91.1 ± 2
12,CNS(=O)(=O)Cc1ccc2[nH]cc(CCN(C)C)c2c1 [Sumatriptan succinate],99.6 ± 5
13,CNC(=O)[C@@H](Cc1ccccc1)N(C)C(=O)[C@@H](Cc1ccc2ccccc2c1)N(C)C(=O)/C=C/CC(C)(C)N [Tabimorelin],79.1 ± 1.2
14,CC(C)c1ccc(C(=O)c2cccs2)c(SCCCCCCCCN(C)C)n1,74.54 ± 0.56
15,CCC(CC)(CC(=O)Nc1cccc(/C=C/c2nc(C3CCC3)cs2)c1)C(=O)O [Cinalukast],86.7 ± 1.5
16,CC(C)[C@H](CO)Nc1nc(Nc2cccc(Cl)c2)c2ncn(C(C)C)c2n1 [Purvalanol A],78 ± 2.9
17,NC(=O)N1c2ccccc2CC(O)c2ccccc21 (centres undefined) [Licarbazepine],86.1 ± 1.1
18,CNC(=O)[C@H]1O[C@@H](n2cnc3c(NCc4cccc(I)c4)ncnc32)[C@H](O)[C@@H]1O,80.94 ± 0.44
19,N#CC(=C(/N)Sc1ccccc1N)/C(C#N)=C(/N)Sc1ccccc1N,78.69 ± 0.74
20,NS(=O)(=O)c1cccc2c1c([N+](=O)[O-])cc1nc(O)c(O)nc12,83 ± 3.5
21,NS(=O)(=O)c1cccc2c1c([N+](=O)[O-])cc1nc(O)c(O)nc12 [NBQX disodium salt],87.215 ± 0.027
22,C=CC(=O)c1ccc2ccccc2c1,87.4 ± 2.4
